Out of some 360,000 compounds screened, about 6,000 (1.7%) were called active. This list was built around the results that the source calls inconclusive (neither active nor inactive); the mix of calls is not that of the screen. Calls come from the whole dose curve; as a rule, active = well fitted cell-killing curve with a large enough effect; inconclusive = small, poorly fitted or top-dose-only effect, or effect the other way; inactive = flat fitted curve, though single readings scatter. No potency is given beside an inconclusive call; the fits are too rough.
assay: qHTS for induction of synthetic lethality in tumor cells producing 2HG: qHTS for the HT-1080-NT fibrosarcoma cell line; conditions: HT-1080-NT fibrosarcoma viability, CellTiter-Glo ATP luminescence, 48 h; activity, negative = less viability: at 46.1 µM (top of the series) unless noted;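 note: NT is the 2HG producing partner of a matched IDH1 knockdown line; nearly all actives have a fitted effect of over 55% in size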;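 for activity, negative = less viability: 0% = DMSO-treated cells and -100% = media-only wells without cells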
Outline: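 Luminescent CellTiter-Glo readout after 48 hours of compound exposure at 37 degrees C defined viability of HT-1080-NT cells. Activity was normalized to DMSO wells and cell-free media wells; concentration-response curves were fitted and assigned curve classes.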
Potency is the fitted concentration of half-maximal effect; tags give direction and shape of the fitted curve.

Compound | activity, negative = less viability | Potency
COc1sc(SC)cc1/C=N/NC(=O)c1ccncc1 | inactive: -5.52% | 
CN(Cc1ccccc1F)c1cc2c(c3c1ccn3C)C1CCC2O1 (stereo unspecified) |  | inconclusive [cytotoxic, single point]
COc1ccc(CNCc2cc(C)c(OC)cc2C)c(OC)c1 |  | inconclusive [cytotoxic, single point]
O=C(Nc1ccc2oc(-c3ccc4ccccc4c3)nc2c1)c1ccc2c(c1)OCCO2 |  | inconclusive [cytotoxic, single point]
Cc1ccc(C(=O)O/N=C(\N)c2ccccn2)c(C)c1 |  | active: 16.4 µM
CC[C@]12c3[nH]c4ccccc4c3CCN1C(=O)C(CC(=O)NCCCn1ccnc1)C[C@@H]2C(=O)N1CCN(C(=O)c2ccco2)CC1 (stereo partly specified) | inactive: -2.95% | 
Cc1ccc(NC(=O)Cn2nnc(-c3ccccc3NC(=O)c3cccs3)n2)cc1 |  | active: 1.16 µM
CCC(=O)Nc1cccc(C(=O)Nc2nccs2)c1 |  | inconclusive [rising, single point]
COCCCNC(=O)c1ccc2nc([C@@H]3O[C@H](CO)[C@H](O)[C@H](O)[C@H]3O)[nH]c2c1 | inactive: 21.6% | 
COc1ccc(/C=C2\C(=O)NCC(=O)N2Cc2ccccc2)cc1 |  | inconclusive [cytotoxic, single point]
COc1ccc(COC(=O)c2cc(S(=O)(=O)N3CCCCC3)ccc2N2CCOCC2)cc1 | inactive: -0.715% | 
COc1ccc(C(=O)/C=C2\C(=O)Nc3ccc(Br)cc32)cc1 |  | inconclusive [cytotoxic, single point]
O=C(CSc1nnnn1-c1ccccc1Cl)Nc1ccc2c(c1)OCCO2 | inactive: 0.36% | 
CCC(C)[C@H]1CNCCN1CCC12CC3CC(CC(C3)C1)C2 (stereo partly specified) |  | inconclusive [cytotoxic, partial curve]
COc1ccccc1NC(=S)NC(=O)CCCOc1ccc(Cl)cc1Cl |  | inconclusive [cytotoxic, single point]
Cc1cccc(N=Nc2c(N)n[nH]c2-c2ccc(Cl)cc2)c1 |  | inconclusive [cytotoxic, single point]
Cc1oc2c(O)c(O)ccc2c(=O)c1-c1cnn(-c2ccccc2)c1 |  | inconclusive [cytotoxic, single point]
CN(C)CCCCOc1ccc(Br)cc1Cl |  | inconclusive [cytotoxic, partial curve]
CCOc1ccc(-n2c(SCC(=O)NC(C)CC)nc3n[nH]c(C)c3c2=N)cc1 (stereo unspecified) |  | inconclusive [cytotoxic, single point]
CCCc1ccc(C(=O)O/N=C(\N)c2ccccn2)cc1 |  | inconclusive [cytotoxic, single point]
COCCCN1CN=C(Nc2nc3ccccc3o2)NC1 | inactive: 18.7% | 
CCCCN(CC)Cc1c(C)[nH]c2c(ccc3ccccc32)c1=O |  | inconclusive [cytotoxic, single point]
CC(C)N1CCC1(C)C(=O)Nc1ccccc1OC(F)F (stereo unspecified) |  | inconclusive [cytotoxic, partial curve]
CCOC(=O)c1cnc(-n2nc(C)cc2C)nc1Nc1cccc(C(=O)O)c1 | inactive: 0.133% | 

Compound | activity, negative = less viability | Potency
O=[N+]([O-])c1ccc(Cl)c(/C=N/Nc2nc(N3CCOCC3)nc(N3CCOCC3)n2)c1 | inactive: 2.02% | 
c1cncc(-c2nc(NCC3COc4ccccc4O3)c3ccccc3n2)c1 (stereo unspecified) |  | inconclusive [cytotoxic, single point]
Nc1cc2c3c(cccc3c1)C(=O)N(CCN1CCCC1)C2=O |  | active: 20.6 µM
O=C(NNc1ccc(C(F)(F)F)cc1[N+](=O)[O-])c1ccc(NS(=O)(=O)c2ccc(F)cc2)cc1 |  | inconclusive [cytotoxic, partial curve]
CCc1ccc(C(=O)CN(C#N)c2nc(C)cc(C)n2)cc1 |  | inconclusive [cytotoxic, single point]
CC1CC2(C)Oc3ccccc3CC2C(C)C1CNCCCN(C)C (stereo unspecified) |  | active: 5.8 µM
CN1CC2=Cc3ccccc3OC23Oc2ccccc2C=C3C1 |  | active: 16.4 µM
CCOCCCNC(=S)NCCNc1nc2c(C)cccc2cc1C#N |  | inconclusive [cytotoxic, single point]
CCCCCCCC(=O)NC(Nc1ccc(S(N)(=O)=O)cc1)C(Cl)(Cl)Cl (stereo unspecified) |  | inconclusive [cytotoxic, single point]
COc1ccc(C2(c3ccc(O)cc3O)CC(c3ccccc3Cl)NC(=S)N2)cc1 (stereo unspecified) |  | inconclusive [cytotoxic, single point]
O=C(CSc1nc2c([nH]c3ccccc32)c(=O)n1-c1cccc(Cl)c1)N1CCOCC1 |  | inconclusive [cytotoxic, single point]
COc1ccc(OC)c(C(=O)c2coc3ccc(O)cc23)c1 |  | inconclusive [cytotoxic, single point]
Cc1cc(S(=O)(=O)N2CCN(c3ccccc3F)CC2)ccc1-n1cnnn1 | inactive: 2.34% | 
c1ccc2cc3c(NCCN4CCOCC4)ccnc3cc2c1 |  | inconclusive [cytotoxic, single point]
COc1ccc(C(=O)Nc2ccccc2C(=O)Nc2cccc(C)n2)cc1 | inactive: -28.6% | 
CC(=O)Nc1ccc(C2CC(c3ccc(Cl)cc3)=NN2c2ccccc2)cc1 (stereo unspecified) |  | inconclusive [cytotoxic, single point]
COc1ccc(C(C(=O)NC(C)(C)C)n2c(COc3ccc(C)cc3)nc3ccccc32)cc1 (stereo unspecified) |  | inconclusive [cytotoxic, single point]
COc1ccc2nc(NC(=O)CSc3nc4ccccc4o3)sc2c1 |  | inconclusive [cytotoxic, single point]
CCCCCCCCNS(=O)(=O)CCNCc1ccccc1 | inactive: -5.22% | 
CC(=O)N1Cc2cc(C(=O)NCc3cccc(F)c3)nc(-c3cccc(C4=CCCCC4)c3)c2[C@H]1CCO |  | inconclusive [cytotoxic, single point]
Cc1ccc(C2=Nc3ccccc3N=C(c3ccc([N+](=O)[O-])cc3)C2)c(O)c1 |  | inconclusive [cytotoxic, partial curve]
CCOc1ccc(NS(=O)(=O)c2cc(NC(=O)c3ccc(C)cc3)ccc2Cl)cc1 |  | active: 2.31 µM
Cc1ccc2cc(C#N)c(NCCNC(=S)NCCCN(C)C)nc2c1C |  | active: 20.6 µM
Cn1c(CC(=O)Nc2ccccc2F)nnc1SCC(=O)NC1=NCCS1 | inconclusive: 10.5% | 

Compound | activity, negative = less viability | Potency
Cc1ccc(OCC(=O)Nc2oc(-c3ccccc3)c(-c3ccccc3)c2C#N)cc1 |  | inconclusive [cytotoxic, single point]
CCOC(=O)Cc1nnc2c(Nc3ccccc3F)nc3nonc3n12 |  | inconclusive [cytotoxic, partial curve]
COc1ccccc1CCC(=O)OCC(=O)N1CCN(S(=O)(=O)c2ccc(C)cc2C)CC1 |  | inconclusive [cytotoxic, single point]
CSC1=NC2(C[C@H]2c2ccccc2)C(=O)N1C (stereo partly specified) | inactive: 13.6% | 
O=C(CSc1nc2ncc(Cl)cc2[nH]1)Nc1cccc(F)c1 |  | inconclusive [cytotoxic, single point]
CCOC(=O)c1c(CSc2ccccc2)n(C)c2ccc(O)c(CN3CCN(C)CC3)c12 | inactive: -0.147% | 
COc1cccc(Nc2nc(C(N)COCc3ccccc3)cs2)n1 (stereo unspecified) |  | active: 18.4 µM
COc1ccccc1Cc1c(-c2ccco2)nc2ccc(Br)cn12 |  | inconclusive [cytotoxic, single point]
CC1CCCN(S(=O)(=O)c2ccc(C(=O)Nc3sc4c(c3C(N)=O)CCN(C)C4)cc2)C1 (stereo unspecified) |  | inconclusive [cytotoxic, single point]
COc1ccc(S(=O)(=O)Nc2ccc3c(c2)CCC3)cc1 |  | inconclusive [cytotoxic, partial curve, poor fit]
Cc1ccc(S(=O)(=O)c2cc3c(=O)n4ccccc4nc3n(CC3CCCO3)c2=N)cc1C (stereo unspecified) |  | inconclusive [cytotoxic, single point]
COc1cc2c(cc1OC)CN(C(=O)c1cc3ccccc3oc1=O)CC2 |  | inconclusive [cytotoxic, single point]
CCCC(C)NS(=O)(=O)c1ccc(OC)c(C)c1 (stereo unspecified) | inconclusive: 3.83% | 
Cc1cnc(C)c(Nc2nc(C(N)Cc3ccccc3)cs2)n1 (stereo unspecified) |  | inconclusive [cytotoxic, single point]
CCOC(=O)CN1C(=O)CSc2ccc(S(=O)(=O)N3CCOCC3)cc21 | inactive: 6.81% | 
Cc1ccccc1Cn1c(C)nc2ccc([N+](=O)[O-])cc2c1=O | inactive: -16.2% | 
CSc1ccc(CN2CCC(C)(Oc3ccccc3C)C2)cc1 (stereo unspecified) |  | inconclusive [cytotoxic, single point]
O=C(CN1CCOCC1)N/N=C/c1ccc(-c2cccc(Cl)c2Cl)o1 |  | inconclusive [cytotoxic, partial curve]
CCCCCCC(=O)N1C/C=C\C(c2ccc(OC)cc2)N(Cc2ccc(F)cc2)C(=O)[C@H]1Cc1ccccc1 (stereo partly specified) | inactive: -22.8% | 
Cc1csc(NC(=O)c2cc3c(C)nn(Cc4ccccc4Cl)c3s2)n1 | inconclusive: -30.1% [cytotoxic] | 
Oc1c(Cl)cc(CN2CCOCC2)c2cccnc12 |  | active: 7.31 µM
Cc1c(C#N)c(N)nc2c3c(sc12)NC(=O)CC3c1ccc(Cl)cc1 (stereo unspecified) |  | active: 20.6 µM
Cc1ccccc1S(=O)(=O)NC(=O)C1(C)CCN1C(=O)CCc1cccs1 (stereo unspecified) |  | inconclusive [rising, partial curve]
